Relative cell viability data for 73 molecules are collected here from the supplement of paper PMC10670038.

Counter-ions that a name gives are not always drawn. ± gives the standard deviation of the averaged measurements. In all, about 2,000 compounds were measured (“relative cell viability vs DMSO, compound alone”: median about 1.1, lowest 2% from about 0.29 on). The list shows a part of the results.

This assay relates to TE10. As to the kind of experiment: relative cell viability vs DMSO, compound alone (fraction); TE10 is an esophageal squamous carcinoma line; higher = less cytotoxic. The settings on record: 2 µM; 48 h. On the procedure:
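TE10 ESCC cells (1,000/well, 384-well plates) were treated with Selleck bioactive library compounds at 2 uM alone for 48 h. Viability was read by CellTiter-Glo and expressed relative to DMSO wells. Two technical replicates (A, B).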
`Cc1cc(O)c2c(c1)C(=O)c1cccc(O)c1C2=O` [Chrysophanic Acid] displayed a relative cell viability of 0.955 ± 0.042. Regarding `NC(=O)c1cn(Cc2c(F)cccc2F)nn1` [Rufinamide], the relative cell viability was 1.13 ± 0.12. To `CC(C(=O)O)c1ccc(-c2ccccc2)c(F)c1` (stereo not drawn) [Flurbiprofen] belongs 0.958 ± 0.057; to `NC(=O)c1ccc(-c2nc(-c3ccc4c(c3)OCCO4)c(-c3ccccn3)[nH]2)cc1`, 1.02 ± 0.052. In the case of `O=C1NC(=NCc2cccs2)S/C1=C\c1ccc2ncccc2c1` it was 1.03 ± 0.012; in that of `Cc1ccccc1C(=O)Nc1ccc(C(=O)N2CCCC(O)c3cc(Cl)ccc32)c(C)c1` (stereo not drawn) [Tolvaptan], 0.996 ± 0.025. To `CN(C)C(=O)C(CCN1CCC(O)(c2ccc(Cl)cc2)CC1)(c1ccccc1)c1ccccc1` [Loperamide HCl] belongs 0.99852 ± 0.00021.

Take `C=CCc1cccc(/C=N/NC(=O)CN2CCN(Cc3ccccc3)CC2)c1O`: the relative cell viability was found to be 1.075 ± 0.0097. To `CC(NC(=O)C(Cc1ccccc1)NC(=O)OCc1ccccc1)C(=O)CF` (stereo not drawn) belongs 1.14 ± 0.064; to `CC(C(=O)O)c1ccc2c(c1)[nH]c1ccc(Cl)cc12` (stereo not drawn) [Carprofen], 0.964 ± 0.032. To `O=C(Nc1cccc(C(F)(F)F)c1)Nc1cc(S(=O)(=O)NC2CC2)ccc1-c1ccsc1` belongs 0.982 ± 0.031; to `O=C1c2c(O)cccc2C([C@@H]2O[C@H](CO)[C@@H](O)[C@H](O)[C@H]2O)c2cc(CO)cc(O)c21` (stereo partly drawn) [Aloin], 1.09 ± 0.025. To `Cc1cc(/C=C/C#N)cc(C)c1Nc1ccnc(Nc2ccc(C#N)cc2)n1` [Rilpivirine] belongs 1.1 ± 0.016; to `C=C1C(=O)[C@]23[C@H](O)[C@H]1CC[C@H]2[C@@]12CO[C@]3(O)[C@@H](O)[C@@H]1C(C)(C)CC[C@@H]2O` [Oridonin], 1.1 ± 0.034. As to `CCOc1cc2ncc(C#N)c(Nc3ccc(F)c(Cl)c3)c2cc1NC(=O)/C=C/CN(C)C` [Pelitinib (EKB-569)], the relative cell viability worked out at 0.677 ± 0.13. To `Cc1c(N(C)C)c(=O)n(-c2ccccc2)n1C` [Amidopyrine] belongs 1.14 ± 0.022; to `CCN(CC)CCNC(=O)c1c(C)[nH]c(/C=C2\C(=O)Nc3ccc(F)cc32)c1C` [Sunitinib Malate], 1.11 ± 0.037; to `CCN(CC)CCNC(=O)c1c(C)[nH]c(/C=C2\C(=O)Nc3ccc(F)cc32)c1C` [Sunitinib], 1 ± 0.095. Consider `COc1ccc(/C=C/C(=O)Nc2ccccc2C(=O)O)cc1OC` [Tranilast], for which the relative cell viability is 1.25 ± 0.077. In the case of `COc1ccc(C2=NC(c3ccc(Cl)cc3)C(c3ccc(Cl)cc3)N2C(=O)N2CCNC(=O)C2)c(OC(C)C)c1` (stereo not drawn) [Nutlin-3a] it was 1.16 ± 0.0017. In the case of `COc1ccc(C2=NC(c3ccc(Cl)cc3)C(c3ccc(Cl)cc3)N2C(=O)N2CCNC(=O)C2)c(OC(C)C)c1` (stereo not drawn) [Nutlin-3b] it was 1.2 ± 0.044; in that of `CCOC(=O)C1=C(COCCN)NC(C)=C(C(=O)OC)C1c1ccccc1Cl` (stereo not drawn) [Amlodipine besylate (Norvasc)], 0.9751 ± 0.0056; in that of `CCOC(=O)C1=C(COCCN)NC(C)=C(C(=O)OC)C1c1ccccc1Cl` (stereo not drawn) [Amlodipine], 1.09 ± 0.017. To `Cc1ncc(CCCN(C)C)cc1Nc1ncc2c(n1)-c1ccc(C(F)(F)F)cc1NC(=S)C2` belongs 1 ± 0.073; to `Oc1ccc(/C=C/c2cc(O)cc(O)c2)cc1` [Resveratrol], 0.959 ± 0.017; to `CN1[C@@H]2CC[C@H]1C[C@@H](OC(=O)c1c[nH]c3ccccc13)C2` [Tropisetron], 0.99342 ± 0.00029. Consider `Cc1cccc(C)c1OCC(C)N` (stereo not drawn) [Mexiletine HCl], for which the relative cell viability is 1.03 ± 0.04. In the case of `COc1ccccc1OCC(O)CO` (stereo not drawn) [Guaifenesin] it was 0.9417 ± 0.0054; in that of `Nc1nc(CC(=O)Nc2ccc(CCNC[C@H](O)c3ccccc3)cc2)cs1` [Mirabegron], 0.954 ± 0.11; in that of `CC[C@]1(O)C[C@H]2CN(CCc3c([nH]c4ccccc34)[C@@](C(=O)OC)(c3cc4c(cc3OC)N(C=O)[C@H]3[C@@](O)(C(=O)OC)[C@H](OC(C)=O)[C@]5(CC)C=CCN6CC[C@]43[C@@H]65)C2)C1` [Vincristine], 0.74 ± 0.16. To `CC(=O)[C@H]1CC[C@H]2[C@@H]3C=CC4=CC(=O)CC[C@@]4(C)[C@@H]3CC[C@]12C` [Dydrogesterone] belongs 0.971 ± 0.21. For `Cc1cc(=O)[nH]c(=S)[nH]1` [Methylthiouracil], the relative cell viability was 1.19 ± 0.059. To `COc1ccccc1Oc1c(NS(=O)(=O)c2ccc(C(C)(C)C)cc2)nc(-c2ncccn2)nc1OCCO` [Bosentan] belongs 1.1 ± 0.021; to `COc1ccccc1Oc1c(NS(=O)(=O)c2ccc(C(C)(C)C)cc2)nc(-c2ncccn2)nc1OCCO` [Bosentan Hydrate], 1.07 ± 0.076. For `COc1cc(N2CCC(N(C)C)CC2)ccc1Nc1ncc(Cl)c(Nc2ccccc2P(C)(C)=O)n1`, the relative cell viability came out at 0.862 ± 0.044. To `COc1cc2c(Oc3ccc(NC(=O)C4(C(=O)Nc5ccc(F)cc5)CC4)cc3F)ccnc2cc1OCCCN1CCOCC1` belongs 0.506 ± 0.04; to `C[S+]([O-])c1ccc(-c2nc(-c3ccc(F)cc3)c(-c3ccncc3)[nH]2)cc1` (stereo not drawn), 1.31 ± 0.085. To `CN1CCC[C@@H]1Cc1c[nH]c2ccc(CCS(=O)(=O)c3ccccc3)cc12` [Eletriptan HBr] belongs 0.802 ± 0.024; to `CCC[C@@H]1C[C@@H](C(=O)N[C@@H]([C@H]2O[C@H](SC)[C@H](O)[C@@H](O)[C@H]2O)[C@H](C)Cl)N(C)C1` [Clindamycin], 1.1187 ± 0.00023; to `CCC[C@@H]1C[C@@H](C(=O)N[C@@H]([C@H]2O[C@H](SC)[C@H](O)[C@@H](O)[C@H]2O)[C@H](C)Cl)N(C)C1` [Clindamycin HCl], 1.1243 ± 0.00035. To `CO[C@H]1/C=C\C=C(/C)C(=O)NC2=CC(=O)C(NCCN(C)C)=C(C[C@@H](C)C[C@H](OC)[C@H](O)[C@@H](C)/C=C(\C)[C@@H]1OC(N)=O)C2=O` [17-DMAG (Alvespimycin) HCl] belongs 0.535 ± 0.043. Take `O=C(N[C@H](CO)[C@H](O)c1ccc([N+](=O)[O-])cc1)C(Cl)Cl` [Chloramphenicol]: the relative cell viability came to 1.021 ± 0.0098. In the case of `O=C(O)CCNC(=O)c1ccccc1` [Betamipron] it was 1.08 ± 0.022; in that of `C=C1/C(=C\C=C2/CCC[C@]3(C)[C@@H]([C@H](C)CCCC(C)C)CC[C@@H]23)C[C@@H](O)C[C@@H]1O` [Alfacalcidol], 1.15 ± 0.056; in that of `CCOc1ccc2ccccc2c1C(=O)N[C@@H]1C(=O)N2[C@@H]1SC(C)(C)[C@@H]2C(=O)O` [Nafcillin Sodium], 1.02 ± 0.25. In the case of `CCN(CC)CCNC(=O)c1cc(Cl)c(N)cc1OC` [MetoclopraMide HCl] it was 1.16 ± 0.024; in that of `CC1=NN(c2ccccc2)C(=O)C1` [Edaravone], 1.22 ± 0.066; in that of `COc1ccc(O)cc1` [Mequinol], 1.12 ± 0.06. In the case of `Cc1ccc(-c2nn(C(C)(C)C)c3ncnc(N)c23)cc1` it was 1.03 ± 0.058; in that of `CCCCCCOC(=O)NC(=N)c1ccc(NCc2nc3cc(C(=O)N(CCC(=O)OCC)c4ccccn4)ccc3n2C)cc1` [Dabigatran Etexilate], 0.99 ± 0.045. Molecule `NC(=O)c1cccc(-c2cc(Nc3ccc(OC(F)(F)F)cc3)ncn2)c1` had a relative cell viability of 1.06 ± 0.067.

`CCN(CC)CCOC(=O)c1ccc(N)cc1Cl` [Chloroprocaine HCl]: the relative cell viability was 1.15 ± 0.027. Molecule `CC1(C)O[C@H]2CC(=O)OC[C@]23[C@H]2CC[C@@]4(C)[C@H](c5ccoc5)OC(=O)[C@H]5O[C@]54[C@]2(C)C(=O)C[C@@H]13` [Limonin] had a relative cell viability of 1.125 ± 0.0024.

Consider `C#Cc1cccc(Nc2ncnc3cc(OCCOC)c(OCCOC)cc23)c1` [Erlotinib], for which the relative cell viability is 1.08 ± 0.024. `C#Cc1cccc(Nc2ncnc3cc(OCCOC)c(OCCOC)cc23)c1` [Erlotinib HCl (OSI-744)] came in with a relative cell viability of 1.18 ± 0.11. In the case of `COc1ccc(Cn2ccc3ccc(C(=O)NO)cc32)cc1` it was 0.9751 ± 0.0083; in that of `Cc1onc(-c2ccccc2Cl)c1C(=O)N[C@@H]1C(=O)N2[C@@H]1SC(C)(C)[C@@H]2C(=O)O` [Cloxacillin Sodium], 0.759 ± 0.014; in that of `COC(=O)C1=CO[C@@H](O[C@@H]2O[C@H](CO)[C@@H](O)[C@H](O)[C@H]2O)[C@@H]2C(CO)=CC[C@H]12` [Geniposide], 1.07 ± 0.059. To `CN[C@@H]1[C@H](O)[C@H](NC)[C@H]2O[C@@]3(O)C(=O)C[C@@H](C)O[C@H]3O[C@@H]2[C@H]1O` [Spectinomycin HCl] belongs 1.03 ± 0.12; to `NS(=O)(=O)c1cc2c(cc1Cl)NC(C(Cl)Cl)NS2(=O)=O` (stereo not drawn) [Trichlormethiazide], 0.891 ± 0.072; to `NC(=O)c1cnc(N[C@@H]2CCCC[C@@H]2N)nc1Nc1cccc(-n2nccn2)c1`, 1.13 ± 0.016. To `CC(C)C(=O)Oc1ccc(CO)cc1[C@H](CCN(C(C)C)C(C)C)c1ccccc1` [Fesoterodine Fumarate] belongs 1.12 ± 0.031; to `Cc1nn(-c2ccccc2)c(C)c1C=NN1CCN(Cc2ccccc2)CC1`, 1.04 ± 0.085; to `Cc1ccc(NC(=O)c2ccc(CN3CCN(C)CC3)cc2)cc1Nc1nccc(-c2cccnc2)n1` [Imatinib Mesylate (STI571)], 1.18 ± 0.042. In turn, `Cc1ccc(NC(=O)c2ccc(CN3CCN(C)CC3)cc2)cc1Nc1nccc(-c2cccnc2)n1` [Imatinib (STI571)] returned a relative cell viability of 1.18 ± 0.064. `O=C(O)C(=O)O.[NH-][C@@H]1CCCC[C@H]1[NH-].[Pt+2]` [Oxaliplatin] showed a relative cell viability of 0.99 ± 0.025. To `O=C(NCC1(c2nc(-c3ccccc3)cs2)CCOCC1)c1cccc(-c2noc(C(F)(F)F)n2)c1` belongs 0.8055 ± 0.0031; to `CCOC(=O)O[C@]1(C(=O)OCCl)CC[C@H]2[C@@H]3CCC4=CC(=O)C=C[C@]4(C)[C@H]3[C@@H](O)C[C@@]21C` [Loteprednol etabonate], 0.909 ± 0.013; to `CCc1c2c(nc3ccc(O)cc13)-c1cc3c(c(=O)n1C2)COC(=O)[C@]3(O)CC`, 0.501 ± 0.03. In the case of `Clc1ccc(C(Cn2ccnc2)OCc2ccsc2Cl)c(Cl)c1` (stereo not drawn) [Tioconazole] it was 0.893 ± 0.026; in that of `COc1cc(C(=O)N2CCC(N3CCN(C)CC3)CC2)ccc1Nc1ncc2c(n1)N(C)c1ccccc1C(=O)N2C`, 1.01 ± 0.065. To `COc1cc2c(c(OC)c1OC)-c1c(cc3c(c1OC)OCO3)CC(C)C(C)C2` (stereo not drawn) [Schisandrin B (Sch B)] belongs 1.08 ± 0.048. With `CCOC(=O)c1cnc2ccc(-c3cncc(NS(=O)(=O)c4ccccc4)c3)cn12`, the relative cell viability is 0.50898 ± 0.00049.
